From PubChem BioAssay AID1768 (National Center for Advancing Translational Sciences (NCATS), 2009)
Among all 270,000 compounds or so, about 620 (0.23%) were called active. Inconclusive results, whose numbers are uncertain, are shown with a selection of clear calls. The call rests on the fitted dose curve; in most records, active means well fitted inhibition curve with a large enough effect in the polarisation, with a control signal flat (not every such curve was filed as active); inconclusive means small, poorly fitted or top-dose-only effect, or effect the other way, or a change in a side signal; inactive means no such curve, though single readings can be large or run the other way; the % refers to the polarisation. Where the call is inconclusive, the potency comes from a doubtful curve fit. “Side channel” marks fits to a control or component signal instead of the main read-out.

These molecules were tested against Menin (Homo sapiens) (UniProt O00255) (assay: qHTS Assay for Inhibitors Targeting the Menin-MLL Interaction in MLL Related Leukemias: Competition With Texas Red Labeled MLL-derived Mutant Peptide). Settings: fluorescence polarization; FP activity change, negative = inhibition: at 61.6 µM (top of the series).
Potency means the concentration at half of the fitted maximal effect; tags describe the fitted curve by direction and shape or compound fluorescence and quenching.
Wherever FP activity change, negative = inhibition is given: % of control where 0% means no effect.

Chain of UniProt O00255 (O00255 whole entry, looked up): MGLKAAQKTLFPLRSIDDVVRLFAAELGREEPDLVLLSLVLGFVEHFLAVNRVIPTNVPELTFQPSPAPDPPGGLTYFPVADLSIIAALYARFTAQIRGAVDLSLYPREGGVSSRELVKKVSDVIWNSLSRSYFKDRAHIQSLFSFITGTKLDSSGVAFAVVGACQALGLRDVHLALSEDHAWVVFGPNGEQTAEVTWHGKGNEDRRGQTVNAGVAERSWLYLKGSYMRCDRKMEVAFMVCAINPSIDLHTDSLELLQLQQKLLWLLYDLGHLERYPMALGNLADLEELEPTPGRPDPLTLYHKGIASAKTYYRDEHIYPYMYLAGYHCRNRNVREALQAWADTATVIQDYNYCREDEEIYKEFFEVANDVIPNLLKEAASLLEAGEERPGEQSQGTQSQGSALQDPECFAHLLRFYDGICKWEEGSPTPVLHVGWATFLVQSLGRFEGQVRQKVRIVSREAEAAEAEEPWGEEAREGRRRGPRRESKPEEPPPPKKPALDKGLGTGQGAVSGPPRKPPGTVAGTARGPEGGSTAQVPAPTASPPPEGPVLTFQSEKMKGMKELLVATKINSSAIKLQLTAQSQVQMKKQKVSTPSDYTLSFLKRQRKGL

Row | Structure (SMILES) | Potency | FP activity change, negative = inhibition
1 | C=CCN1C=C/C(=C\C=C(C#N)C#N)c2ccccc21 | inconclusive: 7.94 µM [fluorescent, side channel, partial curve] | –
2 | CN(C)c1ccnc(Oc2ccc(F)cc2)c1C#N | – | inactive: 9.99%
3 | CC(=O)OCC1OC(C#Cc2ccc(F)cc2F)C=CC1OC(C)=O (stereo unspecified) | – | inactive: -26.5% [at 11.7 µM]
4 | NC(=O)SCC(=O)Nc1cccc(Cl)c1 | active: 22.4 µM | –
5 | Oc1c(Br)cc(Br)cc1CNc1cccc2cccnc12 | inconclusive: 25.1 µM [quencher, side channel, partial curve] | –
6 | O=c1[nH]c(=O)c2nc3c4ccccc4c4ccccc4c3nc2[nH]1 | inconclusive: 14.1 µM [quencher, side channel, partial curve] | –
7 | CC(C)(C)c1cc(C(=O)CCN2CCOCC2)cc(C(C)(C)C)c1O | inconclusive: 10 µM [fluorescent, side channel, partial curve] | –
8 | Cc1ccc(S(=O)(=O)N2CCN(c3cnn(C)c(=O)c3Cl)CC2)cc1 | – | inactive: -2.09%
9 | O=C(Cc1sc(Nc2ccccc2)nc1-c1ccccc1)NCc1ccccn1 | inconclusive: 25.1 µM [quencher, side channel, partial curve] | –
10 | OCC1(Cc2ccc(F)cc2F)CCCN(CCCc2ccccc2)C1 (stereo unspecified) | inconclusive: 5.62 µM [fluorescent, side channel, partial curve] | –
11 | CCOC(=O)Cc1nnc(NC(=O)c2ccccc2OCC)s1 | – | inactive: 6.45%
12 | CCN1CCCC1CNC(=O)CCNC(=O)c1cc(OC)c(OC)c(OC)c1 (stereo unspecified) | inconclusive: 12.6 µM [inhibitor, partial curve, poor fit] | –
13 | Cc1cccc(C)c1NC(=O)C(c1ccc(Cl)cc1Cl)N1CCCCC1 (stereo unspecified) | inconclusive: 10 µM [fluorescent, side channel, partial curve] | –
14 | CCOc1ccc(NS(=O)(=O)c2cc(NC(=O)c3ccc(C)cc3)ccc2Cl)cc1 | inconclusive: 39.8 µM [inhibitor, single point] | –
15 | CC1CN(C(=O)CCC(=O)NCc2ccccc2)c2ccccc2S1 (stereo unspecified) | – | inactive: 1.43%
16 | CC(=O)Nc1ccc(C2CC(c3ccc(Cl)cc3)=NN2c2ccccc2)cc1 (stereo unspecified) | inconclusive: 7.94 µM [quencher, side channel, full curve] | –
17 | O=C(CCNS(=O)(=O)c1cccc2nsnc12)NCCC1=CCCCC1 | inconclusive: 20 µM [inhibitor, partial curve] | –
18 | COc1ccccc1-c1nccc(NCc2cccs2)n1 | inconclusive: 2.24 µM [inhibitor, full curve, poor fit] | –
19 | COc1ccc(-c2nc3c(c4c2C[C@H](c2ccccc2)OC4)CN(C(=O)c2ccco2)CC3)c(C)c1 | inconclusive: 3.55 µM [fluorescent, side channel, partial curve] | –
20 | O=C(c1ccc(NS(=O)(=O)c2cccs2)cc1)N1CCN(c2ccccc2Cl)CC1 | – | inactive: -21.5%
21 | Cc1ccc(C)c(OCC(=O)Nc2cccc(C(=O)O)c2)c1C | – | inactive: -15.1%

Row | Structure (SMILES) | Potency | FP activity change, negative = inhibition
22 | CC1CCN(c2nc(-c3ccccc3)cc(C(F)(F)F)n2)CC1 | – | inactive: -11.5%
23 | N#Cc1ccccc1NC(=O)CN1CCOCC1 | inconclusive: 22.4 µM [inhibitor, partial curve, poor fit] | –
24 | O=C(CSc1ncnc2c1oc1ccccc12)Nc1cccc(Cl)c1 | inconclusive: 17.8 µM [quencher, side channel, partial curve] | –
25 | COC(=O)c1cc(NCc2ccccc2F)ccc1N1CCOCC1 | – | inactive: -0.232%
26 | NC(=S)N/N=C\c1c(OCc2ccccc2Cl)ccc2ccccc12 | inconclusive: 17.8 µM [inhibitor, partial curve] | –
27 | Cc1ccc(CNc2ncnc3c2cnn3-c2ccccc2)cc1 | inconclusive: 35.5 µM [fluorescent, side channel, single point] | –
28 | Cc1ccc(NC(=S)N=Nc2c(O)[nH]c3ccccc23)cc1 | inconclusive: 20 µM [quencher, side channel, partial curve] | –
29 | O=C(NCC1CC1(Cl)Cl)Nc1ccc(Cl)c(Cl)c1 (stereo unspecified) | inconclusive: 14.1 µM [quencher, side channel, partial curve] | –
30 | Cc1cccc(NC(=O)NNC(=O)c2cc3ccccc3cc2O)c1C | inconclusive: 28.2 µM [quencher, side channel, partial curve] | –
31 | O=C(NCCOC(=O)c1ccc(C(=O)OCCNC(=O)c2cccnc2)s1)c1cccnc1 | – | inactive: 1.94%
32 | Cc1nnc(NC(=O)CSc2ncnc3c2cnn3-c2ccccc2C)s1 | inconclusive: 28.2 µM [inhibitor, single point] | –
33 | CCOc1ccc(CNc2ccc(N3CCCC3)cc2)cc1 | inconclusive: 22.4 µM [fluorescent, side channel, single point] | –
34 | C=CCCC(=O)Nc1nc(C)c(-c2csc(Nc3ccc(Cl)cc3)n2)s1 | inconclusive: 3.16 µM [quencher, full curve] | –
35 | COc1ccc(-n2c(SCC(=O)Nc3cc(C)on3)nc3ccccc3c2=O)cc1Cl | inconclusive: 35.5 µM [fluorescent, side channel, single point] | –
36 | COc1ccc(C(=O)C2CCCN(C(=O)/C=C/c3ccccn3)C2)c(C)c1 (stereo unspecified) | inconclusive: 3.55 µM [inhibitor, single point] | –
37 | Cc1cccc(OCC(=O)N/N=C/c2ccccc2C(=O)O)c1 | inconclusive: 35.5 µM [inhibitor, single point] | –
38 | Cc1cccc(Nc2nnc(SCC(=O)Nc3ccccc3[N+](=O)[O-])s2)c1 | inconclusive: 28.2 µM [quencher, side channel, single point] | –
39 | C[C@@H]1CC[C@H]2[C@H](C)[C@H]3CC[C@H]4C5[C@@H](O)CC6=CC(=O)CC[C@]6(C)[C@H]5C[C@H]4C3C(=O)N2C1 (stereo partly specified) | inconclusive: 3.98 µM [inhibitor, partial curve] | –
40 | CNC(=O)CN(c1cc(C)ccc1OC)S(=O)(=O)c1ccc(C)cc1 | inconclusive: 10 µM [inhibitor, partial curve, poor fit] | –
41 | CCOC(=O)C1=C(CSc2nc3c(cc2C#N)CN(C)CC3)OC(N)=C(C#N)C1c1ccc(Cl)cc1 (stereo unspecified) | inconclusive: 28.2 µM [quencher, side channel, single point] | –
